In all, about 81,000 sequences were measured (“one-hybrid fitness for binding NBS DNA”: median about -0.1, highest 2% from about 0.36 on). Some of the results follow.

The values below come from a collection of fitness landscapes (doi:10.1016/j.celrep.2020.107928).

B1: Caulobacter ParB omega fusion; a variant is named by its letters at X, in order, B8GW30 (parent)
chain: MESVVVGEPGMSEGRRGLGRGLSALLGEVDAAPAQAPGEQLGGSREAPIEILQRNPDQPRRTFREEDLEDLSNSIREKGVLQPILVRPSPDTAGEYQIVAGERAWRAAQRAGLKTVPIMVRELDDLAVLEIGIIENVQRADLNVLEEALSYKVLMEKFERTQENIAQTIGKSXSHVANXMRLLXLPDEVQSYLVSGELTAXHARAIAAAADPVALAKQIIEGGLSVRETEALARKAPNLSAGKSKGGRPPRVKDTDTQALESDLSSVLGLDVSIDHRGSTGTLTITYATLEQLDDLCNRLTRGI

The assay covers variants of B1. Description: one-hybrid fitness for binding NBS DNA (the Noc-binding site; scaled: cognate 1, non-cognate 0); higher = stronger binding. As to conditions: with NBS DNA site. The method in brief: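 Selection: bacterial one-hybrid in E. coli USO, HIS3 reporter with the site 19 bp from the promoter, 48 hours at 37°C on M9-minus-histidine plus 0.1 mM IPTG and 5 mM 3-AT. Libraries were Caulobacter ParB with four randomised specificity codons, sequenced on Illumina before and after selection. Fitness is the rescaled log change in variant-to-wild-type read ratio, anchored to the cognate and non-cognate sites.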
As for RYDH, the “one-hybrid fitness for binding NBS DNA” value is no more than 0.2.
As for LRSV, the figure is no more than 0.2; as for TWMY, no more than 0.2; as for FYVC, no more than 0.2.
As for RAAC, the figure is no more than 0.2; as for PIQC, no more than 0.2.
As for IRYC, the figure is no more than 0.2; as for SPAV, no more than 0.2.
With GFNR, the “one-hybrid fitness for binding NBS DNA” value was no more than 0.2.
Regarding KTSK, the “one-hybrid fitness for binding NBS DNA” value was no more than 0.2.
As for QGNE, the figure is no more than 0.2; as for WFKG, no more than 0.2.
In the case of VDLC, the “one-hybrid fitness for binding NBS DNA” value is no more than 0.2.
TVGV: the “one-hybrid fitness for binding NBS DNA” value was no more than 0.2.
For TLGW, the “one-hybrid fitness for binding NBS DNA” value is no more than 0.2.
As for DAMY, the figure is no more than 0.2; as for TTVT, no more than 0.2.
In the case of WQWS it was no more than 0.2; in that of QCTE, no more than 0.2.
Regarding FDRC, the “one-hybrid fitness for binding NBS DNA” value is no more than 0.2.
For DIRG, the “one-hybrid fitness for binding NBS DNA” value was no more than 0.2.
Consider RGKP, for which the “one-hybrid fitness for binding NBS DNA” value was no more than 0.2.
As for WNHR, the “one-hybrid fitness for binding NBS DNA” value was no more than 0.2.
Turning to SYAR, the “one-hybrid fitness for binding NBS DNA” value was no more than 0.2.
TKGP: the “one-hybrid fitness for binding NBS DNA” value was no more than 0.2.
As for SNSN, the figure is no more than 0.2; as for SRVS, no more than 0.2.
Consider GSRC, for which the “one-hybrid fitness for binding NBS DNA” value was no more than 0.2.
As for RLQC, the figure is no more than 0.2; as for ATER, no more than 0.2.
On to LGNT, for which the “one-hybrid fitness for binding NBS DNA” value is no more than 0.2.
As for YFGG, the figure is no more than 0.2.
Turning to KTYK, the “one-hybrid fitness for binding NBS DNA” value was no more than 0.2.
In the case of GDKC it was no more than 0.2; in that of VPTY, no more than 0.2; in that of RFLR, no more than 0.2.
As for TSCY, the “one-hybrid fitness for binding NBS DNA” value is no more than 0.2.
As for QTLI, the figure is no more than 0.2.
In the case of SCLC it was no more than 0.2; in that of SRPR, no more than 0.2; in that of VFPT, no more than 0.2.
Consider QQDN, for which the “one-hybrid fitness for binding NBS DNA” value was no more than 0.2.
In the case of SGTR it was no more than 0.2; in that of PSDA, no more than 0.2; in that of VVTY, no more than 0.2.
On to RNRW, for which the “one-hybrid fitness for binding NBS DNA” value is no more than 0.2.
In the case of ESAP, the “one-hybrid fitness for binding NBS DNA” value is no more than 0.2.
As for DTWV, the figure is no more than 0.2; as for TNPF, no more than 0.2.
Turning to FGLC, the “one-hybrid fitness for binding NBS DNA” value is no more than 0.2.
Consider NALR, for which the “one-hybrid fitness for binding NBS DNA” value was no more than 0.2.
Consider INYC, for which the “one-hybrid fitness for binding NBS DNA” value was no more than 0.2.
For the variant GIAC, the “one-hybrid fitness for binding NBS DNA” value is no more than 0.2.
In the case of STLC it was no more than 0.2; in that of WDTC, no more than 0.2; in that of GTSF, no more than 0.2.
In the case of CLRR it was no more than 0.2; in that of QFSA, no more than 0.2; in that of TWGS, no more than 0.2.
In the case of DSES, the “one-hybrid fitness for binding NBS DNA” value is no more than 0.2.
As for TAFA, the figure is no more than 0.2.
As for CECS, the figure is no more than 0.2.
As for RGSD, the figure is no more than 0.2; as for YAGS, no more than 0.2.
Consider EAPN, for which the “one-hybrid fitness for binding NBS DNA” value was no more than 0.2.
In the case of ECQS it was no more than 0.2; in that of HNCC, no more than 0.2; in that of SRSA, no more than 0.2.
As for ATFF, the figure is no more than 0.2; as for LARK, no more than 0.2; as for QRDH, 0.381.
For the variant PVGP, the “one-hybrid fitness for binding NBS DNA” value is no more than 0.2.
As for TTML, the figure is no more than 0.2.
In the case of LWPT it was no more than 0.2; in that of HFSI, no more than 0.2; in that of VQRG, no more than 0.2.
As for PSAY, the figure is no more than 0.2; as for TCTF, no more than 0.2.
On to TNDS, for which the “one-hybrid fitness for binding NBS DNA” value is no more than 0.2.
In the case of RQYH it was no more than 0.2; in that of TNCS, no more than 0.2.
Consider RECS, for which the “one-hybrid fitness for binding NBS DNA” value is no more than 0.2.
In the case of RVAV it was no more than 0.2; in that of SKNN, no more than 0.2.
As for AWPR, the figure is no more than 0.2.
As for TVIY, the figure is no more than 0.2; as for CVVT, no more than 0.2.
For the variant RLKK, the “one-hybrid fitness for binding NBS DNA” value was no more than 0.2.
As for NSYL, the figure is no more than 0.2; as for RTNR, 0.744.
As for NCHS, the figure is no more than 0.2; as for DLPT, no more than 0.2.
In the case of YSYP it was no more than 0.2; in that of FYTN, no more than 0.2; in that of SLSY, no more than 0.2.
AWLT: the “one-hybrid fitness for binding NBS DNA” value is no more than 0.2.
On to KDKK, for which the “one-hybrid fitness for binding NBS DNA” value is no more than 0.2.
In the case of WTRI it was no more than 0.2; in that of SGTE, no more than 0.2.
As for YRNR, the figure is no more than 0.2; as for DGCS, no more than 0.2.
Turning to PCLC, the “one-hybrid fitness for binding NBS DNA” value was no more than 0.2.
In the case of STFK it was no more than 0.2; in that of GDTA, no more than 0.2.
As to SNYV, the “one-hybrid fitness for binding NBS DNA” value was no more than 0.2.
Take LRVE: the “one-hybrid fitness for binding NBS DNA” value was no more than 0.2.
In the case of TAHV it was no more than 0.2; in that of EQVG, no more than 0.2; in that of RKFN, no more than 0.2.
Take HKNS: the “one-hybrid fitness for binding NBS DNA” value was no more than 0.2.
With CPSY, the “one-hybrid fitness for binding NBS DNA” value was no more than 0.2.
In the case of RNEM it was no more than 0.2.
In the case of AQCN it was no more than 0.2; in that of QVPP, no more than 0.2.
In the case of DRIA it was no more than 0.2; in that of DWTG, no more than 0.2; in that of SCMT, no more than 0.2.
On to PHSY, for which the “one-hybrid fitness for binding NBS DNA” value is no more than 0.2.
In the case of QPDF it was no more than 0.2.
As for FSKR, the figure is 0.218.
As for QVHW, the figure is no more than 0.2.
Take VGTA: the “one-hybrid fitness for binding NBS DNA” value was no more than 0.2.
Regarding QQHL, the “one-hybrid fitness for binding NBS DNA” value was no more than 0.2.
As for ECSG, the figure is no more than 0.2; as for LVNW, no more than 0.2.
As for TQFT, the figure is no more than 0.2; as for NVSM, no more than 0.2; as for DRVG, no more than 0.2.
In the case of FAVR, the “one-hybrid fitness for binding NBS DNA” value is no more than 0.2.
As for CEYG, the figure is no more than 0.2; as for QTRR, 1.15; as for PYSS, no more than 0.2.
On to LSDS, for which the “one-hybrid fitness for binding NBS DNA” value was no more than 0.2.
As for THRL, the figure is no more than 0.2.
As for TKEA, the figure is no more than 0.2.
Regarding AAII, the “one-hybrid fitness for binding NBS DNA” value was no more than 0.2.
In the case of NHCL it was no more than 0.2.
As for QSLF, the figure is no more than 0.2.
In the case of VQSH it was no more than 0.2.
Turning to IPST, the “one-hybrid fitness for binding NBS DNA” value is no more than 0.2.
As to DAEG, the “one-hybrid fitness for binding NBS DNA” value was no more than 0.2.
Turning to NYPV, the “one-hybrid fitness for binding NBS DNA” value is no more than 0.2.
As to LDLR, the “one-hybrid fitness for binding NBS DNA” value is no more than 0.2.
With CLPV, the “one-hybrid fitness for binding NBS DNA” value was no more than 0.2.
RTNG: the “one-hybrid fitness for binding NBS DNA” value was no more than 0.2.
In the case of QAPT, the “one-hybrid fitness for binding NBS DNA” value was 0.23.
In the case of PPRL it was no more than 0.2; in that of YASC, no more than 0.2; in that of AVCS, no more than 0.2.
As for NQPQ, the figure is no more than 0.2; as for KNTS, no more than 0.2; as for TITW, no more than 0.2.
For HGTV, the “one-hybrid fitness for binding NBS DNA” value was no more than 0.2.
